In the supplement of paper PMC12645437, “Orthogonal IMiD-Degron Pairs Induce Selective Protein Degradation in Cells” (ACS Chemical Biology, 2025):
The list shows a part of the results.

Target: no compound (DMSO)
Test: log2 fold change of degron read counts, EGFP-low vs EGFP+ sorted cells; higher = lower degron-EGFP level without compound (poor expression or instability)
Settings: compound: DMSO control; 18 h
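Note: jurkat cells carrying a lentiviral library of mutant zinc finger degrons fused to EGFP plus mCherry, mCherry+ cells FACS sorted, degron abundance counted by next-generation sequencing.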

Row | Sequence | log2 fold change of degron read counts
1 | FMCNVCGATFTQKGNLLRHIKL | -1.35
2 | FGCEICGRTFTQKGNLLRHIKL | 0.00391
3 | FWCNQCGACFTQKGNLLRHIKL | 0.557
4 | FACEVCGALFTQKGNLLRHIKL | -1.64
5 | FDCDICGAMFTQKGNLLRHIKL | -1.89
6 | LACNQCGFICTQKGNLLRHIKL | 0.49
7 | FNCDVCGAYFTQKGNLLRHIKL | -0.747
8 | FWCEQCGAEFTQKGNLLRHIKL | -2.29
9 | FWCEICGHDFTQKGNLLRHIKL | 0.246
10 | FWCNVCGADFTQKGNLLRHIKL | -0.0903
11 | FACNQCGHQFTQKGNLLRHIKL | -0.288
12 | FKCPICGRRFTQKGNLLRHIKL | -1.45
13 | FKCEICGATFTQKGNLLRHIKL | -1.92
14 | FKCDICGAFFTQKGNLLRHIKL | -2.2
15 | FICDICGATFTQKGNLLRHIKL | -1.31
16 | FACEVCGATFTQKGNLLRHIKL | -0.538
17 | FFCPICGHNFTQKGNLLRHIKL | 0.55
18 | LKCPICGFKCTQKGNLLRHIKL | -0.651
19 | FQCNQCGASFTQKGNLLRHIKL | -1.32
20 | FGCSVCGHLFTQKGNLLRHIKL | 0.406
21 | FNCNICGAMFTQKGNLLRHIKL | -0.338
22 | FQCNVCGAAFTQKGNLLRHIKL | -0.874
23 | FSCDQCGAPFTQKGNLLRHIKL | -1.07
24 | LTCNQCGFECTQKGNLLRHIKL | -0.518
25 | FHCSVCGHAFTQKGNLLRHIKL | -0.546

Row | Sequence | log2 fold change of degron read counts
26 | FWCPICGRPFTQKGNLLRHIKL | 0.473
27 | FKCDICGARFTQKGNLLRHIKL | -1.93
28 | FQCEICGRGFTQKGNLLRHIKL | -2.12
29 | FCCEICGRTFTQKGNLLRHIKL | -1.93
30 | FKCEQCGAVFTQKGNLLRHIKL | -1.64
31 | FNCDQCGACFTQKGNLLRHIKL | -1.46
32 | FRCPICGHYFTQKGNLLRHIKL | 0.666
33 | FCCPICGHIFTQKGNLLRHIKL | -0.12
34 | FWCDQCGAEFTQKGNLLRHIKL | -0.688
35 | FLCPICGHGFTQKGNLLRHIKL | -0.807
36 | FYCNICGALFTQKGNLLRHIKL | 0.593
37 | FKCNQCGRVFTQKGNLLRHIKL | -0.432
38 | FTCPICGHPFTQKGNLLRHIKL | 0.224
39 | FCCPICGAFFTQKGNLLRHIKL | 0.646
40 | LTCNQCGFSCTQKGNLLRHIKL | -0.993
41 | LCCEICGFKCTQKGNLLRHIKL | -0.139
42 | FACEVCGADFTQKGNLLRHIKL | -4.13
43 | FSCEVCGAFFTQKGNLLRHIKL | -1.31
44 | FTCPVCGAAFTQKGNLLRHIKL | 0.0822
45 | FECPICGAVFTQKGNLLRHIKL | 0.12
46 | LVCNQCGFTCTQKGNLLRHIKL | -1.14
47 | FHCPVCGAEFTQKGNLLRHIKL | -0.681
48 | FFCNICGAWFTQKGNLLRHIKL | 0.518
49 | FCCNVCGATFTQKGNLLRHIKL | -1.46
50 | FFCPICGANFTQKGNLLRHIKL | 0.329
